Experiment [1] is described as follows: ATG_TCF_b_cat_CIS: Attagene CIS-FACTORIAL HepG2 Assay for human T-Cell-Factor with beta-catenin (TCF/b-cat) (AID 2282965; active = hit-call score of the fitted dose curve at least 0.9, where 1 is the maximum; inactive = score below 0.9). The settings on record: HepG2 TCF/beta-catenin cis-reporter transcription, actives raise or lower the signal. The procedure, abridged: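 Using capillary electrophoresis as the read-out, labelled reporter cDNA fragments from transiently transfected HepG2 were sized and quantified. Exposure lasted 24 hours; activity in either direction was referenced to DMSO.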

The nature of experiment [2]: ATG_NRF2_ARE_CIS: Attagene CIS-FACTORIAL HepG2 Assay for human Nuclear Factor Erythroid 2 Related Factor 2 (NFR2) response to Antioxidant Response Elements (ARE) (AID 2282992; active = hit-call score of the fitted dose curve at least 0.9, where 1 is the maximum; inactive = score below 0.9;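 also: reporter mRNA level measured by RT-PCR and capillary electrophoresis fluorescence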). The following applies: HepG2 Attagene ARE/NRF2 reporter, transcription factor activity; actives raise or lower the signal. The procedure, abridged:
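Endogenous transcription factor activity in human liver HepG2 cells is tracked via a cis-element-driven reporter within a multiplexed set. mRNA induction is read by RT-PCR and capillary electrophoresis after 24 h, with DMSO as baseline.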

Experiment [3] addresses Nuclear receptor subfamily 1 group I member 2 (Homo sapiens) (UniProt O75469). The experiment in a line: ATG_PXR_TRANS: Attagene TRANS-FACTORIAL HepG2 Assay for human Pregnane X Receptor (PXR) (AID 2283008). An outline of the steps:
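HepG2 transfected (FuGene 6) with GAL4-UAS reporter units + PXR-Gal4 chimera; dosed 24 h. Total RNA → oligo(dT) RT → PCR → 6-FAM primer extension → HpaI cut → CE. Gain-of-signal vs DMSO.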

The target in experiment [4] is Glucocorticoid receptor (Homo sapiens) (UniProt P04150). Briefly: NVS_NR_hGR: NovaScreen (NVS) Nuclear Receptor Binding Assay for human Glucocorticoid Receptor (GR) (AID 2283363).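 Also: activity is loss of specific radioligand binding signal relative to DMSO.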 An outline of the steps: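 Single-readout cell-free binding: radioligand plus extracted receptor, 16-hour dosing, filter radiodetection; 25 uM duplicate primary, concentration series secondary.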
UniProt P04150, sequence (P04150 whole entry, looked up): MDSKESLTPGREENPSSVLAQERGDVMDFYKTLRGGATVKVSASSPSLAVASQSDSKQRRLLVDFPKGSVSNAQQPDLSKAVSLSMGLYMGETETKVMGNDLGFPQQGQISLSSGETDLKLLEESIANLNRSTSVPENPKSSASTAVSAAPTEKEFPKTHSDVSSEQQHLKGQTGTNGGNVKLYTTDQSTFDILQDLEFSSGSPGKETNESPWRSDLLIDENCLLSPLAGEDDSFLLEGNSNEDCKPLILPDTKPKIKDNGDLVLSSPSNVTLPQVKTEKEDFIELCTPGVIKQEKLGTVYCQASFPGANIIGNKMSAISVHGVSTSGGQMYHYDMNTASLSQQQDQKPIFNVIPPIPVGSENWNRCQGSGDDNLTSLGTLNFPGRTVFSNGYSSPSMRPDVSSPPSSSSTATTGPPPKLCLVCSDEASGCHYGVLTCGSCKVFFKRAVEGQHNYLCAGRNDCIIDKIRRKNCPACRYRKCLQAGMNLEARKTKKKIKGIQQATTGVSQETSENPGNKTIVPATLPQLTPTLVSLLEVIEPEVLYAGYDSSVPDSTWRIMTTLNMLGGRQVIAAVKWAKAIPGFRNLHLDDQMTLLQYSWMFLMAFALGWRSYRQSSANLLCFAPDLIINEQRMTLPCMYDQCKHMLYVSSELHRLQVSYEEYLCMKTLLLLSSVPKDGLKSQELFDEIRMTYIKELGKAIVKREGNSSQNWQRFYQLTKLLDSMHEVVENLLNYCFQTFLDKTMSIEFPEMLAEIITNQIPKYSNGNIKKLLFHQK

Experiment [5] is described as follows: ATG_PXRE_CIS: Attagene CIS-FACTORIAL HepG2 Assay for human Pregnane X Receptor Element (PXRE) (AID 2282957; active = hit-call score of the fitted dose curve at least 0.9, where 1 is the maximum; inactive = score below 0.9). The following applies: HepG2 Attagene CIS-FACTORIAL PXRE reporter, mRNA; actives raise or lower the signal. The procedure, abridged:
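Using HepG2 transfected with multiple reporter transcription units, endogenous factor-driven transcription was scored as reporter mRNA after 24 h exposure.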

The target of experiment [6] is rat Mineralocorticoid Receptor (MR), Nr3c2 (gene 25672) (UniProt P22199). The experiment in a line: NVS_NR_rMR: NovaScreen (NVS) Nuclear Receptor Binding Assay for rat Mineralocorticoid Receptor (MR) (AID 2283355). An outline of the steps: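 Single-concentration duplicate screen (25 uM) of radioligand binding in adrenalectomized rat brain supernatant; scintillation detection 24 h after dosing. Positive and negative controls ran on each plate, and confirmed actives went to concentration-response.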
UniProt P22199, sequence (P22199 whole entry, looked up): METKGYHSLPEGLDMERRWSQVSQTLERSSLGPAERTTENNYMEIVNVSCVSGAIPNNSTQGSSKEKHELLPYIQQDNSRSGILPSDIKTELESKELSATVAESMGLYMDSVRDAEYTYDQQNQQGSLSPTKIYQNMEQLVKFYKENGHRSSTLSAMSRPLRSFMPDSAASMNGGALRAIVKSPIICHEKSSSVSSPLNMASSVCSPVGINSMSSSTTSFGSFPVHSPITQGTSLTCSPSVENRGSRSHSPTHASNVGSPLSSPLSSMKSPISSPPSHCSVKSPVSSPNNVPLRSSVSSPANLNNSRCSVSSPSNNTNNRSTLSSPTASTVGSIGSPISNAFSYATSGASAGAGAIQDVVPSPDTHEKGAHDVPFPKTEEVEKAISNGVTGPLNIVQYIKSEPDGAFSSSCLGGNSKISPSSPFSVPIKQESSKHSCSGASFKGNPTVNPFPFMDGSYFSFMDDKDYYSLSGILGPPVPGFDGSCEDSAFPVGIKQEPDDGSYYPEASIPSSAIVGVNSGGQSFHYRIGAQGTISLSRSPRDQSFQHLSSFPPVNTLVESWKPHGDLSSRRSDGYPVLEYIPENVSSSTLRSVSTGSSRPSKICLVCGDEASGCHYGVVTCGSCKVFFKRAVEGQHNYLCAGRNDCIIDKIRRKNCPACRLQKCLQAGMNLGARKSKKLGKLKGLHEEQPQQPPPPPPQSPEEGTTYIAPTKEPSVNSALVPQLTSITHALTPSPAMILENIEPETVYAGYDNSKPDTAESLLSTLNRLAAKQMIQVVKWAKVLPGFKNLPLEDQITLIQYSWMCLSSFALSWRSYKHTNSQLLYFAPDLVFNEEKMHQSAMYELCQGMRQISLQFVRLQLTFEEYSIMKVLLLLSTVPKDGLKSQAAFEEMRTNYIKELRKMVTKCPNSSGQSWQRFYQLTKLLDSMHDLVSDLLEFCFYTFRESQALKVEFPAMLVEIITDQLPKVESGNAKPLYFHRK

For part of its entries the source gives two or more results. The list is limited to them. An entry can have further records. Values that stand side by side repeat one measurement in other runs, samples, wells, individuals or studies. Records with an inconclusive call do not appear. The calls were made as follows, unless noted: active = hit-call score of the fitted dose curve at least 0.9, where 1 is the maximum; inconclusive = response in the unintended direction; inactive = score below 0.9. Where a structure was tested more than once in an assay, its records may differ in their call.

UniProt O75469, sequence (O75469 whole entry, looked up, the tested form may be a part): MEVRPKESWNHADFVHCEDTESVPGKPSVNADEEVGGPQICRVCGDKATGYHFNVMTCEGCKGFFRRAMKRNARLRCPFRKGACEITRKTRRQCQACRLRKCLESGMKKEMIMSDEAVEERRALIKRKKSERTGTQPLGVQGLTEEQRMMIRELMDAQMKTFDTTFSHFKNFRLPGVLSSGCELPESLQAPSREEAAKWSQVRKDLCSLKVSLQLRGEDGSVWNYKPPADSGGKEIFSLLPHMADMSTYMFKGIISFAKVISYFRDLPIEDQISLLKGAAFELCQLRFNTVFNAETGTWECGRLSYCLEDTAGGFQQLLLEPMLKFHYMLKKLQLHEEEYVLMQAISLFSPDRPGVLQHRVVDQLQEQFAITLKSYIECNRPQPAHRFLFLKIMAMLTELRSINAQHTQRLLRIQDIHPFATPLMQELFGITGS

What is called AC50 is the midpoint of the concentration-response curve, whichever way the signal moves. Turning to `CC(=O)O[C@]1(C(C)=O)CC[C@H]2[C@@H]3C=C(Cl)C4=CC(=O)[C@@H]5C[C@@H]5[C@]4(C)[C@H]3CC[C@@]21C`, the AC50 entry in experiment [1] is “active: 33.9, 137, 100, 51.8 µM [separate samples]”.

For the compound `CCN(CC)CCOc1ccc(C(=C(Cl)c2ccccc2)c2ccccc2)cc1`, the AC50 result in experiment [2] was “active: 2.37 µM, 618 nM, 3.68 µM, 2.52 µM [separate samples]”; in experiment [3] it was “active: 1.85 µM, 1.09 µM, 722 nM, 433 nM [separate samples]”; in experiment [4], “active: 6.06, 2.8, 1.84, 1.53 µM [separate samples]”.

For the compound `CC(=O)[C@@]1(O)CC[C@H]2[C@@H]3CCC4=CC(=O)CC[C@]4(C)[C@H]3CC[C@@]21C`, the AC50 entry in experiment [5] is “active: 11.7, 27.3, 12.5, 4.74 µM [separate samples]”; in experiment [6], “active: 25.5, 48.4, 25.1, 128 nM [separate samples]”; in experiment [4] it was “active: 159, 59.4, 72.6, 13.9 nM [separate samples]”.

Source of the values: PubChem BioAssay (EPA / NIEHS).
